Test results taken from PMC4336329 (PLoS ONE, 2015).
Among all 310,000 compounds or so, about 14,000 (4.5%) showed an effect of 50% or more. The effect is printed as a negative number. The list shows a part of the results.

Molecular target: human ether-à-go-go-related gene (hERG) potassium channel (human, UniProt Q12809)
Experiment: primary screen, population patch clamp on CHO cells stably expressing hERG
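Further: peak tail current of the secondary pulse compared with the same well before compound.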

human ether-à-go-go-related gene (hERG) potassium channel, sequence (Q12809 whole entry, looked up): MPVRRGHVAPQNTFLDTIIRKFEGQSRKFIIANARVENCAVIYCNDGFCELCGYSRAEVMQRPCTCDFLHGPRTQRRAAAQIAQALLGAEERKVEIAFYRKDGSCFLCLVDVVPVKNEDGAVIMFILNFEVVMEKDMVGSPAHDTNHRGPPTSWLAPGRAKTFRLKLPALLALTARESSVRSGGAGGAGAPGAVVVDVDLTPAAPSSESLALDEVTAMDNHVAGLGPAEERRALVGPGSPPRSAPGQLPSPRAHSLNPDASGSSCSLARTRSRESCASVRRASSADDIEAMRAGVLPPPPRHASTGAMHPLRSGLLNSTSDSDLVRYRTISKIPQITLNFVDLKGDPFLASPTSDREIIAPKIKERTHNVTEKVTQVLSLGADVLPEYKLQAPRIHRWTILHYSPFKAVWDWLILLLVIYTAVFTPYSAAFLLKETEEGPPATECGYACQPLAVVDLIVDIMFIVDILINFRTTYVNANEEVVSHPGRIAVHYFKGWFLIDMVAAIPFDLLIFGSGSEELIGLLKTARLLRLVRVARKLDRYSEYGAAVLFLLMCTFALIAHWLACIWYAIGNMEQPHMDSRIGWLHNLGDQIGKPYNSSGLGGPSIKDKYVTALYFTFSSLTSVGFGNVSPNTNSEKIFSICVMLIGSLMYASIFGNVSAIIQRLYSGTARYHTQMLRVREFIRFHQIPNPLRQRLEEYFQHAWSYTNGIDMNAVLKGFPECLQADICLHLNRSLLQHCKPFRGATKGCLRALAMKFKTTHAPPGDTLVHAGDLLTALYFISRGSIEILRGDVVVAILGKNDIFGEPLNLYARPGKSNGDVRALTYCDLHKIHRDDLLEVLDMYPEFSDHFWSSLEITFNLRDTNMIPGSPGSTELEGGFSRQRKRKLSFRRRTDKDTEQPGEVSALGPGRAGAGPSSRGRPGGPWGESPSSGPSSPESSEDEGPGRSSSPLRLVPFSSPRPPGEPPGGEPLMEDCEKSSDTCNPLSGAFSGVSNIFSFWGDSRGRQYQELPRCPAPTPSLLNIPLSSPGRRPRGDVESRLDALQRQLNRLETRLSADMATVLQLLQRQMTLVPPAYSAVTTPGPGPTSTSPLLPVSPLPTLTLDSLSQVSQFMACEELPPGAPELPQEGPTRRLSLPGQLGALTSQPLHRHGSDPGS

Structure (SMILES) | hERG current change (%, negative = inhibition) at 10uM
Cc1ccc(S(=O)(=O)Nc2cc(Cl)ccc2-n2cncn2)cc1 | 15.1%
Cc1cccc(-c2onc3ccc(C(=O)/C=C/N(C)C)cc23)c1 | -42%
O=C(COc1ccccc1)NS(=O)(=O)c1ccccc1 | 2.17%
Cc1cc(C)n(-c2nc3ccccc3nc2N2CCN(C(=O)c3ccc(Cl)cc3)CC2)n1 | -45.7%
O=C(NCc1nc2ccccc2[nH]1)c1ccccc1F | 19.1%
Cc1cc(C(=O)C(C)OC(=O)C2=NNC(=O)CC2)c(C)n1-c1ccc(OC(F)F)cc1 (centres unmarked) | -73.3%
CCN(c1cccc(C)c1)S(=O)(=O)c1ccc(-n2cccn2)cc1 | -1.6%
C/C(CC(=O)Nc1ccc2c(c1)OCCO2)=N\NC(=O)c1cccc(O)c1 | 14.3%
O=C(Nc1ccc(Br)cc1)c1cccc(OC(=S)N2CCOCC2)c1 | 17%
Brc1ccc(C=Nc2ccc(Nc3ccccc3)cc2)s1 | 9.59%
Cc1nc(SCC(=O)NC2CC2)c2c(C)c(C)sc2n1 | 6.21%
Cc1ccccc1NC(=O)CSc1nn2c(=O)c(C)nnc2s1 | 8.72%
COc1ccc(NC(=O)c2c([N+](=O)[O-])c(C(C)(C)C)nn2C)cc1 | 10.4%
O=C(CSC1=NS(=O)(=O)c2cc(F)ccc2N1)NCc1ccc(F)cc1 | -9.82%
Cn1cnnc1SCC(=O)c1c(N)n(Cc2ccccc2)c(=O)n(C)c1=O | 20.4%
COc1ccccc1-n1nnnc1SCC(=O)Nc1ccccc1 | 17%
Cc1oc(-c2cc(F)ccc2F)nc1CN1CCC(C(=O)N2CCOCC2)CC1 | -42.8%
CC(c1nnnn1C(C)(C)C)N(Cc1cccnc1)Cc1ccccc1Cl (centres unmarked) | -52.3%
Cc1nc(-c2cccc(S(=O)(=O)N3CCCCCC3)c2)cs1 | -23.2%
COCCCN=Cc1c(C)[nH]n(-c2ccc(Br)cc2Br)c1=O | 20.4%
Cc1c(OC(C)C(=O)N2C[C@H]3C[C@@H](C2)c2cccc(=O)n2C3)ccc2c3c(c(=O)oc12)CCCC3 (some centres unmarked) | -22.2%
CCCS(=O)(=O)N1CCC(C(=O)NCCN2CCCC2)CC1 | -7.65%
COc1ccc(NC(=O)CSc2ccccc2)cn1 | 29.8%

Structure (SMILES) | hERG current change (%, negative = inhibition) at 10uM
O=C(CSc1ccc(-c2ccccn2)nn1)N1CCc2ccccc21 | 3.29%
O=C(Nc1ccc(F)c(Cl)c1)Nc1ccc(Cl)cn1 | 8.86%
N#Cc1cccc(CN2CCCN(Cc3ccc(F)cc3)S2(=O)=O)c1 | -48%
CN(C(=O)C1CCCO1)c1nnc(-c2cnccn2)s1 (centres unmarked) | -1.46%
Cc1ccc2cc(C)c(SCC(=O)Nc3cc(C)on3)nc2c1 | 20.9%
Cc1cc(NC(=O)COC(=O)COc2ccc3c(c2)CCC3)no1 | 19.6%
C=CCSc1nc2c(c(=O)n(C)c(=O)n2C)n1CC | -2.18%
COCCN(Cc1cc2cc3c(cc2nc1Cl)OCO3)C(C)=O | 3.81%
Cc1cc(C)nc(NC2=NCCS2)n1 | 22.8%
O=C(CSc1ccccc1)N1CCc2ccccc21 | -1.34%
CC1CC(N(C(=O)c2ccc(Cl)cc2)c2ccccc2)c2ccccc2N1C(=O)c1ccco1 (centres unmarked) | -1.8%
COc1ccc(CC(=O)NNS(=O)(=O)c2ccc3ccccc3c2)cc1OC | 11%
CCN(C(=O)CSc1nc2ccc(OC)cc2[nH]1)c1c(N)n(Cc2ccccc2)c(=O)[nH]c1=O | 12.8%
O=C(CCC1CC(=O)Nc2ccccc21)NCc1ccc(F)cc1 (centres unmarked) | -17.6%
Cc1oc(C(C)(C)C)cc1C(=O)NC(Cc1ccccc1)C(=O)O (centres unmarked) | 5.73%
CCOC(=O)N1CCN(C2CCCN(C(=O)c3cccc(Cl)c3)C2)CC1 (centres unmarked) | -0.193%
CC12CC3(C)CC(C)(C1)CC(C(N)=O)(C2)C3 | 22.7%
CC(=O)Nc1ccc(N(C(=O)Cc2cccs2)C(C(=O)NC2CCCC2)c2ccncc2)cc1 (centres unmarked) | 9.17%
O=C(NCc1n[nH]c(=S)n1-c1cccc(Cl)c1)c1ccc(S(=O)(=O)N2CCCCC2)cc1 | 12.7%
O=C(NC1CCCC1)C(c1ccncc1)N(C(=O)c1csnn1)c1cccc(Cl)c1 (centres unmarked) | -7.32%
CCC1CCCCN1S(=O)(=O)c1c(C)n(C)c(=O)n(C)c1=O (centres unmarked) | 2.51%
Nc1ncnc2c1ncn2CCc1ccccc1 | 11.9%
O=C(NNC(=O)c1cncc(Br)c1)c1ccncc1 | 8.16%

Structure (SMILES) | hERG current change (%, negative = inhibition) at 10uM
C=CCn1c(SCC(=O)NCC2CCCO2)nc2scc(-c3ccccc3)c2c1=O (centres unmarked) | -15.1%
NS(=O)(=O)c1ccc(CCNC(=O)COC(=O)COc2cccc(C(F)(F)F)c2)cc1 | -11.8%
Cc1c(C(=O)N2CC(C)OC(C)C2)sc2nc(-c3ccccc3)cn12 (centres unmarked) | -15.2%
Cc1ccc(SCc2cc(=O)[nH]c(/N=C(\N)Nc3ccc(C)c(C)c3)n2)cc1 | -5.05%
COc1ccccc1C(=O)N1CCCC1(C#N)c1ccccc1 (centres unmarked) | -3.96%
COC(=O)C1=C(C)NC(=O)NC1c1ccc(N2CCC(c3ccccc3)=N2)cc1 (centres unmarked) | 39.7%
Cc1cccc(C)c1NC(=O)COc1ccc2c(C)c(Cc3ccccc3)c(=O)oc2c1 | -8.46%
CC(NC(=O)c1ccccc1NC(=O)CN1CCN(c2ccccc2O)CC1)c1ccccc1 (centres unmarked) | -6.31%
NS(=O)(=O)c1ccc(NC(=O)Cc2cccs2)cc1 | 15%
CC(C)(C)C(=O)Nc1c2c(nn1-c1ccccc1)CSC2 | 1.98%
Fc1ccc(NCc2n[nH]c(=S)n2Cc2ccccc2)cc1 | -19.7%
CC(=O)Nc1ccc(NC(=O)CSc2nnc(NC(=O)c3ccc(Br)o3)s2)cc1 | -0.661%
O=C(Nc1ccccc1)Nc1c(F)cccc1F | 13.2%
O=C(Cc1ccsc1)NNC(=O)c1ccccc1O | 7.87%
Cc1c(NC(=O)Cn2nc(C(=O)O)c3ccccc3c2=O)c(=O)n(-c2ccccc2)n1C | -16.8%
O=C(CN1CCN(c2ccc(F)cc2)CC1)c1ccc(O)cc1O | 4.2%
CCOc1ccccc1NC(=O)C1CC2CCCC(C1)C2=O (centres unmarked) | 10.9%
Cc1ccc(S(=O)(=O)N(C)c2ccc(OCC(=O)Nc3ccc(C(=O)N(C)C)cc3)cc2)cc1C | 19.4%
CN(C)CCCN(Cc1ccccc1)C(=S)NCc1ccccc1 | -24.7%
Cc1ccc(-c2nn(C(C)(C)C)c3ncnc(N)c23)cc1 | 9.28%
COc1ccc2c(c1)CC(C1(O)C(=O)Nc3ccccc31)C2=O (centres unmarked) | -8.95%
CCn1c(=O)c(C(=O)NC(C)C)c(O)c2ccccc21 | 9.18%
Cc1[nH]c(-c2ccccn2)nc(=S)c1Cl | 17.1%

Structure (SMILES) | hERG current change (%, negative = inhibition) at 10uM
CC(C)CC(NC(=O)OC(C)(C)C)c1cn([C@@H](CCC(=O)OC(C)(C)C)C(=O)N2CCN(C(=O)OC(C)(C)C)CC2)nn1 (some centres unmarked) | -0.913%
CCn1c(=O)n(CC)c2cc([N+](=O)[O-])ccc21 | 16%
Cc1cc(C)c2nc(C)cc(Nc3ccc(C(=O)N(C)C)cc3)c2c1 | -28.1%
O=C(COC(=O)C1CC1)Nc1c(Cl)cccc1C(F)(F)F | 19.1%
C=CCNC(=S)/C(=C(/[O-])c1ccccc1Br)[n+]1ccccc1 | 16.6%
O=C(CCC(=O)Nc1ccccc1Cl)NNC(=O)Nc1cccc([N+](=O)[O-])c1 | -0.741%
Cc1[nH]n(-c2ccccc2)c(=O)c1N=Nc1ccc(C(=O)O)cc1 | 25.7%
CN(c1ccccc1)S(=O)(=O)c1cccc(C(=O)Nc2nccs2)c1 | 9.62%
COc1ccc(C(=O)Nc2ccc(Cl)cc2C(=O)NCCN2CCOCC2)cc1 | -12.3%
O=c1oc2cc(O)c(Cl)cc2c2ccccc12 | 3.98%
COc1ccc(N=C2SCC(=O)N2CCc2ccc(OC)c(OC)c2)cc1 | 10.6%
CCN(CC)C(=O)Cn1cc(S(=O)(=O)CC(=O)NCCc2ccccc2)c2ccccc21 | -3.13%
Cc1nn(C)cc1S(=O)(=O)Nc1ccc(F)c(F)c1 | 14.9%
CC(=O)Nc1ccc(NC(=O)CN(C)CCC#N)cc1 | 5.44%
O=C(COC(=O)Cc1ccccc1)Nc1cc(S(=O)(=O)N2CCOCC2)ccc1N1CCCC1 | -34.6%
CC1CCc2onc(C(=O)NCc3ccco3)c2C1 (centres unmarked) | -9.46%
Cc1noc(C)c1COc1cccc(C(=O)Nc2cccnc2)c1 | 10.8%
COc1ccccc1-n1cc(CN2CCN(CC(C)C)C(CCO)C2)cn1 (centres unmarked) | -3.13%
CC(C)(C)OC(=O)NCCc1nnc(SCc2ccc(Cl)cc2Cl)o1 | -22.8%
Cc1ccc(S(=O)(=O)N/N=C/c2c(F)cccc2Cl)cc1 | -7%
